PubChem BioAssay AID488969 (Vanderbilt High Throughput Screening Facility, 2010)
Whole data set: some 110,000 compounds, median “z-score” near -0.1, cut for the highest 2% near 2. The list shows a part of the results. Activity calls are given as the source filed them.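 Rule for the calls: active = z-score in the third read window above 3 or below -3; inactive = the rest.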

The compounds below were run against Metabotropic glutamate receptor 8 (Rattus norvegicus) (UniProt P70579) (assay: mGluR8 Gi/Go-coupled signaling modulation – cell-based, rat, thallium flux, HTS, primary screen (AID 488969)). Settings: HEK293 rat mGluR8, GIRK (G protein-gated inwardly rectifying potassium channel) thallium flux, FluoZin2; at 10 µM; stronger effect = higher value; submaximal glutamate (EC20) added with thallium.
UniProt P70579, sequence (P70579 whole entry, looked up): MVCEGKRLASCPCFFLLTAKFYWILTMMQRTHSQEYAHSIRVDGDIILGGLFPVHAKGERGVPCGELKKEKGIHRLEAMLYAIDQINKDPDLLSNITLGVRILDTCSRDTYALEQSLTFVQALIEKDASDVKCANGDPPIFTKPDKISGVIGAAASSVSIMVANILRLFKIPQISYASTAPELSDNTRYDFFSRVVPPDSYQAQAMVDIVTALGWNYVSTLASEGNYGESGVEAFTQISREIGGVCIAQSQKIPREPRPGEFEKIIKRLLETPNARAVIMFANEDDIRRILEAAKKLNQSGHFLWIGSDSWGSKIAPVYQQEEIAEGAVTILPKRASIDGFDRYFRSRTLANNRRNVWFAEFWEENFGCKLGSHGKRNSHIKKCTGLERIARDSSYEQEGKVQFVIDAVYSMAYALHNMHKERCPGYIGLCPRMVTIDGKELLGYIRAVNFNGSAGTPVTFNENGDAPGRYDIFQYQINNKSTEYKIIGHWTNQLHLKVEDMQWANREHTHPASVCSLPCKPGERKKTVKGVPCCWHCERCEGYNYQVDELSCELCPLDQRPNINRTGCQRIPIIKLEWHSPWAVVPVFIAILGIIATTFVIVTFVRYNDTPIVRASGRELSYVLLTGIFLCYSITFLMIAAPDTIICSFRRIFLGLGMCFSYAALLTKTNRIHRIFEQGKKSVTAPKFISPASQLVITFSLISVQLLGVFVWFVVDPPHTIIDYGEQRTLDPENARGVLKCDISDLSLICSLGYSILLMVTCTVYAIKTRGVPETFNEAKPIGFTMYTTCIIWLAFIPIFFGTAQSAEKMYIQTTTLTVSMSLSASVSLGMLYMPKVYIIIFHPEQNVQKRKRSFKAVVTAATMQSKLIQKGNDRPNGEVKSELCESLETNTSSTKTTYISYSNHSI
For `C=CCNC(=O)CSc1cc([N+](=O)[O-])cc(S(=O)(=O)Cc2ccccc2)c1`, the z-score was 0.665. With `Cc1ccc(S(=O)(=O)N(C)Cc2cc3ccccc3[nH]c2=O)cc1` the z-score was -0.0752. `CCn1nnc(-c2ccccc2NC(=O)c2ccc(-n3cnnn3)cc2)n1` gave a z-score of 0.288. `O=C(CSc1ncnc2scc(-c3ccccc3)c12)N1CCN(c2ccccc2F)CC1` showed a z-score of -0.245. Work on `COC(=O)c1ccsc1NC(=O)CSc1nnnn1-c1ccccc1SC` yielded a z-score of 0.584. Work on `C/C(CCc1ccc2c(c1)OCO2)=N\N=C(/N)SC1CC(=O)N(c2ccc(Cl)cc2)C1=O` (stereo unspecified) yielded a z-score of -0.0878. `O=C(CSc1nc2c(sc3ccccc32)c(=O)n1-c1ccccc1)NCc1ccco1` showed a z-score of -0.14. Compound `Cc1ccc(-n2c(CCC(=O)O)ccc2-c2cccs2)cc1C` has a z-score of -0.18. With `Cc1ccc(/C=N/NC(=O)c2ccco2)s1` the z-score was -0.217. For `Cc1cc(C)c(C)c(S(=O)(=O)NNC(=O)c2cccc(S(=O)(=O)N3CCOCC3)c2)c1C`, the z-score was -0.174. `Cc1cc(N2CCCCC2)n2ncc(-c3ccccc3)c2n1` was tested, and the z-score was -0.231. For `CCN1CCN(C(=O)Cn2c(=O)sc3ccccc32)CC1`, the z-score was -0.472. In the case of `Cc1sc2ncnc(N(C)Cc3cccs3)c2c1C`, the z-score is reported as -2.37. For `N#Cc1ccccc1NCc1ccccc1`, the z-score was -0.55. `CCOC(=O)N/N=C\C=C\c1ccc2c(c1)OCO2` showed a z-score of -0.166. Compound `O=C(CCCOc1ccc(Cl)cc1Cl)NNC(=O)c1ccc(NC(=O)c2ccccc2)cc1` has a z-score of -0.0338. Compound `O=C(Nc1ccccc1OC(F)F)c1cc2c(s1)CCC2` has a z-score of 0.635. Compound `Cc1cc(C)nc(SCc2nnc(SCC(N)=O)n2Cc2ccco2)n1` has a z-score of -0.127. `COc1ccc(CN2CC(C(=O)NCCCN3CCOCC3)CC2=O)cc1` (stereo unspecified) gave a z-score of 0.952. In the case of `O=C(O)CC(Cn1cnnn1)c1ccccc1` (stereo unspecified), the z-score is reported as -0.637. Compound `Cc1c(C(=S)Nc2ccccc2)cnn1-c1ccccc1` has a z-score of -0.398. `Cc1ccc(S(=O)(=O)n2nc(OC(=O)C(C)(C)C)cc2N)cc1` showed a z-score of 0.349. Compound `Cc1ccc(C2CN(c3ccccc3)CC2C(=O)c2ccc(F)cc2)cc1` (stereo unspecified) has a z-score of -0.147. `CCOc1ccccc1Nc1nc2ccccc2[nH]1` was tested, and the z-score was 0.0899. `O=C(Nc1ccc2nc3n(c(=O)c2c1)CCCC3)c1cccc([N+](=O)[O-])c1` gave a z-score of -0.5. For `O=C(NNC(=O)c1ccc([N+](=O)[O-])o1)c1ccccc1`, the z-score was 0.454. Work on `CS(=O)(=O)N1CCN(c2nc3ccccc3s2)CC1` yielded a z-score of -0.163. In the case of `O=C(NCc1cccs1)C1CCN(C(=O)NCc2ccccc2)CC1`, the z-score is reported as -0.0865. `Cc1ccc(SCCNC(=O)c2ccccc2)cc1` gave a z-score of -0.743. `N#Cc1ccccc1Sc1ccccc1C(=O)Nc1ccc(Br)cc1` showed a z-score of -0.0649. For `CCC(=O)NC(c1ccccc1OC)c1ccc2cccnc2c1O` (stereo unspecified), the z-score was 0.035. In the case of `Cc1ccc(C(=O)Nc2ccon2)cc1S(=O)(=O)N1CCCCCC1`, the z-score is reported as -0.109. `Cc1cccc(NCC(=O)N/N=C\c2cccc(Oc3ccccc3)c2)c1` showed a z-score of -0.0128. `N#Cc1cc(Oc2ccc3ccccc3c2)c(-n2nnc3ccccc32)cc1C#N` showed a z-score of -0.0816. In the case of `O=C(Nc1ccc2c(c1)OCCO2)C1CCN(S(=O)(=O)c2ccc3c(c2)OCCO3)CC1`, the z-score is reported as -0.0861. Compound `CSCC[C@H](NC(=O)OC(C)(C)C)c1nnc(SCC(=O)Nc2ccc(C)cc2C)o1` has a z-score of -1.24. `Cc1cc(NC(=O)c2c(Cl)c(C)nn2C)no1` was tested, and the z-score was -0.00215. With `CCOC(=O)c1cc(NC(=O)SCC(=O)O)c(C)nc1C` the z-score was -0.394. `CC1=C(C(=O)N2CCc3ccccc32)C2(CCC(C)CC2)OC1=O` (stereo unspecified) showed a z-score of -1.29. Compound `Cc1cccc(N/C(N)=N/c2nc(C(F)(F)F)cc(=O)[nH]2)c1C` has a z-score of -0.582. With `COc1cccc(CNC(=S)NC2CCCC2)c1` the z-score was 0.138. `Cc1cc2nc(-c3ccc(SCC(=O)Nc4nccs4)nc3)[nH]c2cc1C` was tested, and the z-score was 0.000459. `COc1ccc(CCN2C(=O)C3C4CCC(C4=C(C)C)C3C2=O)cc1OC` (stereo unspecified) showed a z-score of 0.225. Compound `Cc1nn(-c2ccccc2)c(Cl)c1/C=C1\SC(=S)NC1=O` has a z-score of -0.842. In the case of `O=C(/C=C/c1cccs1)c1ccc(NC(=O)c2ccccc2F)cc1`, the z-score is reported as 0.039. `CCN1CCN(Cc2c(O)ccc3c2O/C(=C\C=C\c2ccccc2)C3=O)CC1` gave a z-score of -2.09. In the case of `CNC(=O)Cn1nc(-c2ccc(C)c(S(=O)(=O)N(C)C)c2)c2ccccc2c1=O`, the z-score is reported as -0.177. `COc1ccc2nc(SCC(C)=O)c(C#N)cc2c1` showed a z-score of -0.351. `CCc1nc2n[nH]c(N)c2c2c1CSC(C)(C)C2` gave a z-score of -0.133. For `CCCCN(Cc1ccccc1)S(=O)(=O)c1cc(Br)cc2c1N(C(C)=O)C(C)C2` (stereo unspecified), the z-score was 2.82. With `Cc1ccc2nc(-c3ccccc3)cc(C(=O)NCCCn3ccnc3)c2c1` the z-score was -0.0532. For `Cn1c(Oc2ccc3c(c2)OCO3)nc2c1c(=O)n(Cc1ccccc1)c(=O)n2C`, the z-score was 0.00536. In the case of `COc1cc2c(cc1Cl)/C(=C\CCN(C)C)c1ccccc1S2`, the z-score is reported as -0.852. `CC1=C(OC(=O)c2ccccc2)C(C)(C)C(c2ccc(Br)cc2)OC1=O` (stereo unspecified) gave a z-score of -0.0965. For `CCOC(=O)c1ccc2nc(C)c3c(c2c1)OC(C)C3` (stereo unspecified), the z-score was -0.139. In the case of `O=C(Nc1cn(-c2ccccc2)nc1-c1ccc(Cl)cc1)c1ccccc1`, the z-score is reported as 0.0198. Work on `COCCN(CCOC)C(=O)c1c[nH]c2ccc(S(=O)(=O)N(C)c3ccc(F)cc3)cc2c1=O` yielded a z-score of -0.262. In the case of `O=C(Nc1ccccc1)c1cc(S(=O)(=O)N2CCSCC2)ccc1Cl`, the z-score is reported as -0.136. `O=C(COC(=O)c1ccc2c(c1)OCCO2)Nc1cc(Cl)ccc1Cl` was tested, and the z-score was -0.0938. Compound `CCCc1noc2c1/C(=N\O)CC(CC(C)SCC)C2` (stereo unspecified) has a z-score of 1.33. For `CCCCn1c(SCC(=O)c2ccc(O)c(O)c2)nc2ccsc2c1=O`, the z-score was -0.525. In the case of `CNc1c([N+](=O)[O-])cnn1-c1ccccc1Cl`, the z-score is reported as 0.041. With `CC1=Nc2ccccc2N=C(NC(=O)CSc2nnnn2-c2ccccc2)C1c1ccccc1` (stereo unspecified) the z-score was 1.13. Compound `COc1cc2c(cc1OC)-c1cc(NCc3ccccn3)nc(=O)n1CC2` has a z-score of -0.287. `Cc1ccc(N2C(S)=C(C#N)C(=O)NC2c2cccs2)cc1` (stereo unspecified) gave a z-score of -0.463. `COc1cc(C(=O)NCc2nnc(SCC(=O)N3CCC(C)CC3)o2)cc(OC)c1OC` showed a z-score of -0.273. Work on `CCCc1cc(=O)oc2c(C)c(OS(C)(=O)=O)ccc12` yielded a z-score of -0.0283. With `CN1CCN(C2CC(=O)N(c3ccc4c(c3)OCCO4)C2=O)CC1` (stereo unspecified) the z-score was 0.0626. Work on `Fc1ccc(-c2cc3nc(-c4ccccc4)cc(N4CCOCC4)n3n2)cc1` yielded a z-score of -0.31. In the case of `COC(=O)COc1ccc(S(=O)(=O)Nc2ccc(C(N)=O)cc2)cc1`, the z-score is reported as -0.116. Work on `CCN(CC)CC(=O)c1c[nH]c2ccc(OC)cc12` yielded a z-score of -0.172. Compound `CCc1ccc(-n2c(SCC(=O)Nc3cccc(S(=O)(=O)NC4=NCCCCC4)c3)nc3ccccc3c2=O)cc1` has a z-score of 0.908. Work on `CCn1cc(C(=O)O)c(=O)c2cnc(N3CCN(C(=O)Nc4ccccc4)CC3)nc21` yielded a z-score of -0.186. With `Cc1sc2nc(SCc3ccccc3)n(Cc3ccco3)c(=O)c2c1C` the z-score was 0.0771. Compound `COc1ccccc1NC(=O)CSc1nnc(-c2ccccc2)o1` has a z-score of -0.282. In the case of `CC(C)C(=O)NC(c1ccco1)c1ccc2cccnc2c1O` (stereo unspecified), the z-score is reported as -0.678. Work on `CN(C)c1nc(Oc2ccc(=O)[nH]n2)nc(N2CCCCC2)n1` yielded a z-score of -0.303. `COc1ccccc1N1CCN(C(=O)c2c(-c3ccccc3)noc2C)CC1` showed a z-score of -0.634. In the case of `O=C(N1CCN(c2ccccc2)CC1)C1(c2cccs2)CCOCC1`, the z-score is reported as -0.389. Work on `CCCC(=O)OCCNc1cc(SCCC(=O)OC)c2nonc2c1[N+](=O)[O-]` yielded a z-score of -0.658. `CC12CCC(C(=O)N(NC(=O)c3cc(Cl)ccc3O)C1=O)C2(C)C` (stereo unspecified) was tested, and the z-score was 0.00208. `Nc1c(C(=O)NCc2ccco2)nnn1Cc1ccccc1` showed a z-score of -1.11. `CC(=O)Nc1ccc(N2C(=O)CC(c3ccccc3)CC2=O)cc1` was tested, and the z-score was -0.815. With `O=C(NC(=S)Nc1ccc(N2CCOCC2)cc1)c1ccc(Cl)cc1` the z-score was 0.272. `COc1oc(-c2ccccc2C)nc1C(F)(F)F` showed a z-score of 0.396. Work on `Cc1ccc(-c2nnc(-c3ccccc3)c(-c3ccccc3)n2)cc1` yielded a z-score of 0.135. Compound `COc1ccc(C(=O)c2coc3ccc(O)c(CN(C)C)c23)cc1` has a z-score of -0.087. In the case of `C/C(CC(=O)Nc1ccc(Cl)c(C(F)(F)F)c1)=N\NC(=O)c1cc2ccccc2cc1O`, the z-score is reported as -0.301. In the case of `CS(=O)(=O)Nc1ccc(C(=O)NCc2ccccn2)cc1`, the z-score is reported as 0.287. `COc1ccccc1N1CCN(C(CNC(=O)c2ccco2)c2cccnc2)CC1` (stereo unspecified) showed a z-score of 1.2. For `C=CCn1c(COc2ccccc2)nnc1SCC(=O)Nc1ccc(S(N)(=O)=O)cc1`, the z-score was -1.17. Work on `COc1ccccc1OCC(=O)N(Cc1nc(-c2ccc(Cl)cc2)no1)C(C)C` yielded a z-score of 0.436. With `COc1cc(NS(=O)(=O)c2ccc(N=Cc3c(C)[nH]n(-c4ccccc4)c3=O)cc2)nc(OC)n1` the z-score was -0.513. Compound `COc1ccc(CCNC(=O)C2CCCN(c3nn4c(=O)cc(C)nc4s3)C2)cc1OC` (stereo unspecified) has a z-score of 0.0747. For `CC1CN=C(N(C(=O)Nc2ccccc2)c2ccc(F)cc2)S1` (stereo unspecified), the z-score was -0.149. `COc1ccc2c(c1)C(C)=CC(C)(C)N2C(=O)CN1C(=O)CCC1=O` was tested, and the z-score was 0.17. Work on `CC(=O)NC1=NC(=O)/C(=C/N2CCOCC2)S1` yielded a z-score of 0.342. Work on `CC(C)C(=O)c1cc2c(cc1NC(=O)c1ccccc1)OCCO2` yielded a z-score of -0.135. `Cc1nnc(SCC(C)C)[nH]c1=O` was tested, and the z-score was 0.0794. For `O=C(Cc1ccc([N+](=O)[O-])cc1)Nc1cccc(C(F)(F)F)c1`, the z-score was 0.433. `Cc1ccc(CN2CCNC(=O)C2CC(=O)O)cc1` (stereo unspecified) gave a z-score of -0.134. Work on `O=C(NCc1ccco1)c1cc(-c2ccco2)on1` yielded a z-score of 0.971. `Cc1noc(NS(=O)(=O)c2ccc(N/C=C\C(=O)c3ccncc3)cc2)c1C` showed a z-score of -0.456. In the case of `CCC(=O)Nc1ccccc1N1CCN(S(C)(=O)=O)CC1`, the z-score is reported as -0.277. With `CCOC(=O)C(C)Oc1ccc2c(CC)cc(=O)oc2c1C` (stereo unspecified) the z-score was active: -5.15. Work on `CCCNC(=O)c1ccccc1NC(=O)c1ccccc1N(C)S(C)(=O)=O` yielded a z-score of 0.251. `COc1ccc(OC)c(N=Cc2c(O)[nH]c3ccccc23)c1` gave a z-score of 0.195. `CCN(CC)c1ccc(/C=N/NC(=S)NCc2ccccc2)c(O)c1` showed a z-score of -0.243. `Nc1ccccc1SCc1cn2cccnc2n1` was tested, and the z-score was 0.462. Compound `CCOC(=O)CSc1nnc(CNc2ccc(F)cc2)o1` has a z-score of -0.628. For `CC(C)(C)C1CCC2(CC1)Nc1cccc3cccc(c13)N2`, the z-score was active: 4.88.
